# Reference: PubChem BioAssay AID493131 (Broad Institute, 2011)
# About 3,300 (0.97%) of roughly 340,000 compounds were called active. Inconclusive results, whose numbers are uncertain, are shown with a selection of clear calls.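 Rule for the calls: active = mean activation above about 17%, with every replicate also reaching it (limit read from the data, passing the limit was not always enough); inconclusive = only one of the two conditions met; inactive = the rest.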
# Target: Protein FosB (Mus musculus) (UniProt P13346)
# Sequence of UniProt P13346 (P13346 whole entry, looked up): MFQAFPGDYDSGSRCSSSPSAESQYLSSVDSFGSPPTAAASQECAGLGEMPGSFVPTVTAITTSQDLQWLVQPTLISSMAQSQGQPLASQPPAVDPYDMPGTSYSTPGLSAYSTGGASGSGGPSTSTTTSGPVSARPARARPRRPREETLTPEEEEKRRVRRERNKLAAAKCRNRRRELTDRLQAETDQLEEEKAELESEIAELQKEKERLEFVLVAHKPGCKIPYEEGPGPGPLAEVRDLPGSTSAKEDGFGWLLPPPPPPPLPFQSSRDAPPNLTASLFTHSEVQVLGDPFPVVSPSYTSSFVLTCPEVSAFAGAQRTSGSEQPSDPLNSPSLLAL
# Test: enhancers of mouse delta FosB DNA binding – biochemical, fluorescence polarization, TAMRA-CDK5 oligo, single point, primary screen (AID 493131);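 note: fluorescence polarization rise as delta FosB binds a TAMRA Cdk5 AP-1 oligo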
# Details: purified delta FosB, at 25 µM, stronger effect = higher value, percent of positive-control signal above neutral wells
row,SMILES,activation
1,CCOc1ccc(CCNC(=O)c2ccc(NC3=NC4CS(=O)(=O)CC4S3)cc2)cc1 (stereo not given),inconclusive: 17.9%
2,O=C(N/N=C/c1cccc2ccccc12)c1cc2ccccc2o1,active: 20.3%
3,CC(=O)Nc1ccc(NC(=O)CSc2nc(N)c(NC(=O)c3ccccc3F)c(=O)[nH]2)cc1,active: 16.9%
4,c1cc2c3c(cccc3c1)NC1(CCCCCC1)N2,active: 22.5%
5,COc1cccc(Nc2ncnc3sccc23)c1,inactive: 2.35%
6,O=C(CSc1nc(-c2ccccc2)cc(=O)[nH]1)Nc1ccccc1,inconclusive: 28.8%
7,Cn1cc(S(=O)(=O)Nc2ccc3c(c2)OCCO3)cn1,inactive: 2.68%
8,CCOc1ccc(N(CC)C(=O)CCNC(=O)Cn2ccc3ccccc3c2=O)cc1,inactive: -3.21%
9,N/C(COc1cccc(C(F)(F)F)c1)=N\NC(=O)c1cccnc1Oc1ccccc1,inactive: -12.7%
10,O=C(Nc1ccc(Cl)cc1)c1cc(S(=O)(=O)Nc2ccccn2)ccc1Cl,inconclusive: 19%
11,O=c1cc(-c2ccc(O)c(O)c2)oc2c1ccc1ccccc12,inconclusive: 16.6%
12,CCOc1ccc(C(=O)C(CCC(CN(C)C)C(=O)c2ccc(OCC)cc2)CN(C)C)cc1 (stereo not given),inconclusive: 18.2%
13,O=C(COc1ccc(Cl)cc1Cl)N(C1CCCCC1)C1CCS(=O)(=O)C1 (stereo not given),inactive: -8.25%
14,CCCCCn1c(=O)[nH]c2cc(C(=O)NCc3ccc4c(c3)OCO4)ccc2c1=O,inconclusive: 20.5%
15,O=C(NCc1ccc2c(c1)OCO2)c1cc(-c2cc(Cl)ccc2O)n[nH]1,inconclusive: 16.7%
16,O=C(Nc1cccc(NC(=O)c2ccc3c(c2)OCO3)c1)c1ccccc1,inconclusive: 16.5%
17,O=C(Nc1cnccn1)Nc1ccc(Cl)cc1Cl,active: 33.7%
18,COc1cccc(CNC(=O)c2nnn(CC(=O)Nc3cc(Cl)ccc3C)c2N)c1,active: 70.5%
19,Cc1cc(NC(=O)CCCN2C(=O)/C(=C/c3ccccc3Cl)SC2=S)no1,active: 36.9%
20,Cc1cc(NC(=O)Cn2c(C)nc3ccccc3c2=O)ccc1Br,inconclusive: 24.2%
21,COc1ccc(N2C(=O)C3C(C2=O)C(C(=O)c2ccc(Cl)cc2)N2CCCC32)cc1 (stereo not given),inactive: -9.39%
22,CSc1nc(N)nc2c1ncn2CC(=O)NCc1ccc2c(c1)OCO2,active: 20.2%
23,OCCN=c1cc(-c2ccccc2)oc2ccc(Cl)cc12,inconclusive: 19.7%
24,O=C(N/N=C/c1c(Cl)cccc1Cl)c1ccc(-n2cnnn2)cc1,inconclusive: 16.9%
25,Cc1cc2oc(=O)cc(CN(C)Cc3ccccc3Cl)c2cc1C,inactive: -6.79%
